# Some of the results follow.
# B1: PX9937B-bvu-524-33-524 (Bacteroides vulgatus) (protein)
# chain: GTAYWKNPDQFTAFNTGLHALLREKSYNFFLLGEPRADIYGDNPIGGEASQGMERLPFNTINKENVGISNYGDMYKIINQINQMIAKTTETTILTEATQNYYLGEAYGMRAYLYFHLLRSWGDVVLYLDYTEGQNLDLSNITKGVSPATEVMEQIKKDIQASENAFGSDYSFKLGRHFWSAAATQMLKGEAYLWSGRQMNGGNSDYTIAKNAFENVKKADVGLVTSSFKDIFSFENKKNKEMIFTIHNGKDEYEMWGGYYRMRLIPAQDKMVKIYCDENGNSFVGTPDAQLNGLTQLQVRREFYFKGFRNNDTRWTTSLKAVYKKDAQGVVSYFGPITYKFQGTMLEGGSTRSFLDDFPIYRYADCLLQLAMAKVLLGEDPTEEINAVRERAYGSKYFNEHKAEIAYPNDNDPEFYTDNKWMKPDNAGALEAILKERLREFMFEGKRWYDIRLLGWDYVHQYSSAEQSRLLWPIDAGTLTNNSALKQTPGYE
# How the values were obtained:
# Assay in all cases: glycan array binding signal (z-score within array); higher = stronger binding
# Conditions in all cases: glycan notation: IUPAC condensed, linker removed
# [1] = molecular target: Fuc(a1-2)Gal(b1-4)GlcNAc(b1-3)Gal(b1-4)GlcNAc(b1-3)Gal(b1-4)GlcNAc
# Method in brief: (§1)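 Glycan array data were curated from 3228 arrays in the Consortium for Functional Glycomics database and kept only where the protein sequence was available. Glycan names were converted to IUPAC-condensed notation, and columns mapping to the same glycan were averaged. The binding signal is a within-array Z-score, averaged across arrays of the same protein sequence at different concentrations or buffers and across linkers. Negative Z-scores can be read as non-binding.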
# [2] = molecular target: Fuc(a1-2)Gal(b1-4)GlcNAc(b1-3)GalNAc
# Method in brief: as §1
# [3] = molecular target: Fuc(a1-2)Gal(b1-4)GlcNAc(b1-3)[Fuc(a1-2)Gal(b1-4)GlcNAc(b1-6)]GalNAc
# Method in brief: as §1
# [4] = molecular target: Fuc(a1-2)Gal(b1-4)GlcNAc(b1-3)[Fuc(a1-3)[Gal(b1-4)]GlcNAc(b1-6)]Gal(b1-4)Glc
# Method in brief: as §1
# [5] = molecular target: Fuc(a1-2)Gal(b1-4)GlcNAc(b1-6)GalNAc
# Method in brief: as §1
# [6] = molecular target: Fuc(a1-2)Gal(b1-4)GlcNAc6S
# Method in brief: as §1
# [7] = molecular target: Fuc(a1-2)Gal(b1-4)[Fuc(a1-3)]GlcNAc
# Method in brief: as §1
# [8] = molecular target: Fuc(a1-2)Gal(b1-4)[Fuc(a1-3)]GlcNAc(b1-2)Man(a1-3)[Fuc(a1-2)Gal(b1-4)[Fuc(a1-3)]GlcNAc(b1-2)Man(a1-6)]Man(b1-4)GlcNAc(b1-4)[Fuc(a1-6)]GlcNAc
# Method in brief: as §1
# [9] = molecular target: Fuc(a1-2)Gal(b1-4)[Fuc(a1-3)]GlcNAc(b1-2)[Fuc(a1-2)Gal(b1-4)[Fuc(a1-3)]GlcNAc(b1-4)]Man(a1-3)[Fuc(a1-2)Gal(b1-4)[Fuc(a1-3)]GlcNAc(b1-2)Man(a1-6)]Man(b1-4)GlcNAc(b1-4)GlcNAc
# Method in brief: as §1
# [10] = molecular target: Fuc(a1-2)Gal(b1-4)[Fuc(a1-3)]GlcNAc(b1-3)Gal(b1-4)[Fuc(a1-3)]GlcNAc
# Method in brief: as §1
# [11] = molecular target: Fuc(a1-2)Gal(b1-4)[Fuc(a1-3)]GlcNAc(b1-3)Gal(b1-4)[Fuc(a1-3)]GlcNAc(b1-3)Gal(b1-4)[Fuc(a1-3)]GlcNAc
# Method in brief: as §1
# [12] = molecular target: Fuc(a1-2)Gal(b1-4)[Fuc(a1-3)]GlcNAc(b1-3)GalNAc
# Method in brief: as §1
# [13] = molecular target: Fuc(a1-2)Gal(b1-4)[Fuc(a1-3)]GlcNAc(b1-3)[Neu5Ac(a2-6)Gal(b1-4)GlcNAc(b1-6)]Gal(b1-4)Glc
# Method in brief: as §1
# [14] = molecular target: Fuc(a1-2)Gal3S(b1-4)GlcNAc
# Method in brief: as §1
# [15] = molecular target: Fuc(a1-2)Gal6S(b1-3)GlcNAc
# Method in brief: as §1
# [16] = molecular target: Fuc(a1-2)Gal6S(b1-3)GlcNAc6S
# Method in brief: as §1
# Fuc(a1-2)Gal6S(b1-4)Glc = molecular target: Fuc(a1-2)Gal6S(b1-4)Glc
# Method in brief: as §1
# [17] = molecular target: Fuc(a1-2)Gal6S(b1-4)Glc6S
# Method in brief: as §1
# Fuc(a1-2)[Gal(a1-3)]Gal = molecular target: Fuc(a1-2)[Gal(a1-3)]Gal
# Method in brief: as §1
# [18] = molecular target: Fuc(a1-2)[Gal(a1-3)]Gal(b1-3)GalNAc
# Method in brief: as §1
# [19] = molecular target: Fuc(a1-2)[Gal(a1-3)]Gal(b1-3)GalNAc(b1-3)Gal(a1-4)Gal(b1-4)Glc
# Method in brief: as §1
# [20] = molecular target: Fuc(a1-2)[Gal(a1-3)]Gal(b1-3)GlcNAc
# Method in brief: as §1
# [21] = molecular target: Fuc(a1-2)[Gal(a1-3)]Gal(b1-3)GlcNAc(b1-2)Man(a1-3)[Fuc(a1-2)[Gal(a1-3)]Gal(b1-3)GlcNAc(b1-2)Man(a1-6)]Man(b1-4)GlcNAc(b1-4)GlcNAc
# Method in brief: as §1
# [22] = molecular target: Fuc(a1-2)[Gal(a1-3)]Gal(b1-3)GlcNAc(b1-2)Man(a1-3)[Fuc(a1-2)[Gal(a1-3)]Gal(b1-3)GlcNAc(b1-2)Man(a1-6)]Man(b1-4)GlcNAc(b1-4)[Fuc(a1-6)]GlcNAc
# Method in brief: as §1
# [23] = molecular target: Fuc(a1-2)[Gal(a1-3)]Gal(b1-3)GlcNAc(b1-3)GalNAc
# Method in brief: as §1
# [24] = molecular target: Fuc(a1-2)[Gal(a1-3)]Gal(b1-3)GlcNAc(b1-6)GalNAc
# Method in brief: as §1
# [25] = molecular target: Fuc(a1-2)[Gal(a1-3)]Gal(b1-4)Glc
# Method in brief: as §1
# [26] = molecular target: Fuc(a1-2)[Gal(a1-3)]Gal(b1-4)GlcNAc
# Method in brief: as §1
# [27] = molecular target: Fuc(a1-2)[Gal(a1-3)]Gal(b1-4)GlcNAc(b1-2)Man
# Method in brief: as §1
# [28] = molecular target: Fuc(a1-2)[Gal(a1-3)]Gal(b1-4)GlcNAc(b1-2)Man(a1-3)[Fuc(a1-2)[Gal(a1-3)]Gal(b1-4)GlcNAc(b1-2)Man(a1-6)]Man(b1-4)GlcNAc(b1-4)GlcNAc
# Method in brief: as §1
# [29] = molecular target: Fuc(a1-2)[Gal(a1-3)]Gal(b1-4)GlcNAc(b1-2)Man(a1-3)[Fuc(a1-2)[Gal(a1-3)]Gal(b1-4)GlcNAc(b1-2)Man(a1-6)]Man(b1-4)GlcNAc(b1-4)[Fuc(a1-6)]GlcNAc
# Method in brief: as §1
# [30] = molecular target: Fuc(a1-2)[Gal(a1-3)]Gal(b1-4)GlcNAc(b1-3)GalNAc
# Method in brief: as §1
# [31] = molecular target: Fuc(a1-2)[Gal(a1-3)]Gal(b1-4)GlcNAc(b1-3)[Fuc(a1-2)[Gal(a1-3)]Gal(b1-4)GlcNAc(b1-6)]GalNAc
# Method in brief: as §1
# [32] = molecular target: Fuc(a1-2)[Gal(a1-3)]Gal(b1-4)GlcNAc(b1-6)GalNAc
# Method in brief: as §1
# [33] = molecular target: Fuc(a1-2)[Gal(a1-3)]Gal(b1-4)[Fuc(a1-3)]Glc
# Method in brief: as §1
# [34] = molecular target: Fuc(a1-2)[Gal(a1-3)]Gal(b1-4)[Fuc(a1-3)]GlcNAc
# Method in brief: as §1
# [35] = molecular target: Fuc(a1-2)[Gal(a1-3)]Gal(b1-4)[Fuc(a1-3)]GlcNAc(b1-3)GalNAc
# Method in brief: as §1
binder,measurement,setting,value
B1,glycan array binding signal (z-score),[1],-0.357
same,glycan array binding signal (z-score),[2],-0.048
same,glycan array binding signal (z-score),[3],-0.197
same,glycan array binding signal (z-score),[4],-0.432
same,glycan array binding signal (z-score),[5],-0.136
same,glycan array binding signal (z-score),[6],-0.16
same,glycan array binding signal (z-score),[7],-0.365
same,glycan array binding signal (z-score),[8],0.361
same,glycan array binding signal (z-score),[9],-0.021
same,glycan array binding signal (z-score),[10],-0.171
same,glycan array binding signal (z-score),[11],-0.25
same,glycan array binding signal (z-score),[12],0.321
same,glycan array binding signal (z-score),[13],-0.284
same,glycan array binding signal (z-score),[14],-0.476
same,glycan array binding signal (z-score),[15],-0.476
same,glycan array binding signal (z-score),[16],0.931
same,glycan array binding signal (z-score),Fuc(a1-2)Gal6S(b1-4)Glc,-0.456
same,glycan array binding signal (z-score),[17],-0.158
same,glycan array binding signal (z-score),Fuc(a1-2)[Gal(a1-3)]Gal,0.035
same,glycan array binding signal (z-score),[18],-0.401
same,glycan array binding signal (z-score),[19],0.046
same,glycan array binding signal (z-score),[20],-0.275
same,glycan array binding signal (z-score),[21],0.131
same,glycan array binding signal (z-score),[22],-0.509
same,glycan array binding signal (z-score),[23],-0.322
same,glycan array binding signal (z-score),[24],-0.124
same,glycan array binding signal (z-score),[25],-0.088
same,glycan array binding signal (z-score),[26],-0.15
same,glycan array binding signal (z-score),[27],-0.313
same,glycan array binding signal (z-score),[28],1.09
same,glycan array binding signal (z-score),[29],0.001
same,glycan array binding signal (z-score),[30],-0.187
same,glycan array binding signal (z-score),[31],-0.34
same,glycan array binding signal (z-score),[32],-0.293
same,glycan array binding signal (z-score),[33],-0.358
same,glycan array binding signal (z-score),[34],-0.017
same,glycan array binding signal (z-score),[35],-0.416

# From the supplement of paper PMC8728848
